Measurements as given in the RNAGym collection of RNA variant scans (doi:10.7554/elife.90254).
The source gives no read counts; variants with many changes may rest on few reads.

B1: OR4K15 (parent)
chain: GUUAACGGUCAUAGGCCAUGGAAACUAGGAGCACCAUUUCGCUGCCAGUGAAGAAAUGAACAAAGAAAAUCUGGGCCAGGCAGGCAUCAAAAGAAAUAGUCUUGCGCUCAACCAGAAAGUCUGUAAUCAUUUUAAGGGUA

Variants of: B1
Assay: self-cleavage, relative activity (ratio to wild type); higher = more cleavage; in vitro, sequencing; the parent is a self-cleaving ribozyme

| Variant | self-cleavage |
| --- | --- |
| A51G G79A A90G U108C U122A U132C | 0 |
| U9C A27G A63G A82U U100C A110G A134G | 0.02 |
| U26C A36G U43C A86G A89G | 0.66 |
| A18G A27U U49A U57C A96G U131C | 0.36 |
| A59G U70A U87A A114U U122C | 0.01 |
| A55G U103C U131C | 0.78 |
| U39C A47G A114G | 0.16 |
| A13G U100C U133C | 2.32 |
| U19A U87C A135G | 1.8 |
| U43C A60G A64G G99A | 0.8 |
| U2C A11U A82G | 0.48 |
| A24G C34U A52U U57A A92G U103C | 0.23 |
| A30U A78U U132C | 0.21 |
| U37C A66G A126U U131C | 1.25 |
| U2C A5G U130C | 0.9 |
| U2A A62G A82U | 0.47 |
| A52G G53A A89G | 2.36 |
| U37C A90G U103C A118U | 0.12 |
| A18G A56G A60G U127C | 0.54 |
| U2A A68C A125G | 0.64 |
| U39A A64U U130C | 1.8 |
| A18G A33G A55G G79U U124A A129G | 0.03 |
| G21U G58U A116G | 0.69 |
| U2A U19G A27U A96G | 1.25 |

| Variant | self-cleavage |
| --- | --- |
| U9C G44A A55G U124C | 1.23 |
| A5G A33G A66U A134G | 1.62 |
| A33G A67U A117U | 0.38 |
| U2C A30G A89G A92G | 0.6 |
| A51G A66G U100A U103C | 0.1 |
| A60U A63G A86G A91G | 0.08 |
| A59U A62G A114G A117U | 0.37 |
| A55G U57C A94G A135G | 1.33 |
| A18G A33G U38C A118U U132C | 0.23 |
| A4G U43C A54G A55G U103C | 0.43 |
| U87C A90G U97C | 0.28 |
| A51G A68G A82G A92G U122C | 0.12 |
| A27G U37C A68G A96C | 1.29 |
| A11U U49C A111U A118U | 0.05 |
| A59G A66G A89G A118U | 0.4 |
| A30G A54G U102C | 0.49 |
| A4G U108C A117G | 0.02 |
| U39C A67G A68G A90G | 0.93 |
| A13G U87A A91U A110G | 0.04 |
| U49G A95G U133C | 1.43 |
| A52G A95G U133C | 2.24 |
| U57A A62U A64U A94G | 1.17 |
| U26C U49C A135G | 1.94 |
| A24C A51U A55G A62G | 1.14 |

| Variant | self-cleavage |
| --- | --- |
| U2C A22G C107A | 0.06 |
| G7U A33G U39A A94G | 1.85 |
| A24G A69G A89G A117G | 1.53 |
| G15A U38C A63G A64C G83A A126G | 0.88 |
| U2A A51U A67G | 1.27 |
| A23G A59G U132A | 0.6 |
| U2A A23G G53U A126G | 0.79 |
| U49A A95G U108C | 0.01 |
| U37C U43A A95G | 2.54 |
| U37G A52G A82G | 0.14 |
| U19G A67G U97C | 1.97 |
| A13U A24G A30G U57C U108A A134G | 0.05 |
| A33G U43C A98G | 0.52 |
| A63G A68G U72C | 0.31 |
| U70A A92G U108C | 0.02 |
| U43A A116G U122C | 0.33 |
| U19C A126U U127C | 0.49 |
| U39C A63G G74A A78G | 0.21 |
| A33G A55G A82G | 0.55 |
| U12A A18U U19C A23C A92G U130C | 0.37 |
| G53U A59U U72C A94G | 0.24 |
| U9A U38C A82G A95G A126G | 0.34 |
| A5G U9A A13C | 0.76 |
| U37G A69G U102C U108C C109U | 0.02 |

| Variant | self-cleavage |
| --- | --- |
| A36G A52G A60G A90G U139A | 0.23 |
| A59U A94G U108C A116G | 0.05 |
| U49C A96G U97C | 0.41 |
| A51G A86U U102C | 2.23 |
| G7A A55G C77U | 1.55 |
| A13G A66G U108G | 0.09 |
| A5G U72C C105U A135G | 0.07 |
| A56G A67G U102C U132C | 0.95 |
| A22G A62C A94G | 0.39 |
| U2C A5G A24C G48A U108C | 0.04 |
| A4U A63G G75C U87C A134G | 0.15 |
| U19A C40U A82U U97C A117G | 0.06 |
| U100C A114G A125U | 1.28 |
| A5G A62C A91G U100A A111G | 0.02 |
| A5G A18U A22G U37C A78G A89C A114U | 0.06 |
| A69G A98G G106A A110G G119A U122A | 0.02 |
| A52G A67G U132C | 1.78 |
| A54G A82G A118C U139G | 0.35 |
| A5G C10U A60G A90G A118U | 0.06 |
| U2G A78G A116G | 0.52 |
| U57C A118U A125G | 0.18 |
| U38C A54G U87C | 0.36 |
| A23G U39C A117G | 1.14 |
| A18G U37C U43G A56G A91G | 0.49 |

| Variant | self-cleavage |
| --- | --- |
| A5U A33G A91G A94U U103A A126G U131C U139C | 0.02 |
| U9C A24U A78G A91U G93A U97A U102C | 0.53 |
| U39C A60G A91G | 0.62 |
| U70C U72A A116G | 0.14 |
| A30G U100C A116G A135G | 0.61 |
| C6A A60G U127C | 0.58 |
| U37C A52U A96G | 0.95 |
| U38C A126U A129U | 0.39 |
| A5G U43A A59G | 0.61 |
| A54U A82U U127C | 0.09 |
| U43A A89U U103C G115A U132C | 0.04 |
| U12A A56G G106A U130C | 0.02 |
| A11G A51G A64G A114U | 0.35 |
| U43G A51G U72C U124A | 0.28 |
| A13G A47G A69U A95G | 1.29 |
| U108C A129G U130C A135G | 0.01 |
| A59G A66G U72G A91G | 0.15 |
| U19C U70C G104A | 0.04 |
| A22G A95G A116U | 0.48 |
| A62G A67G U70A C105A A114G | 0.02 |
| U3A A27G G93U | 0.83 |
| U3C A27G U38A C77U | 0.43 |
| A33G C71U U124C | 0.1 |
| A59G U102C U139C | 2.46 |

| Variant | self-cleavage |
| --- | --- |
| A54G A62G A90G | 0.51 |
| A30G A36G A89G | 1.72 |
| A4G A89G A114G | 0.62 |
| A59U A60G U72A A82U U131C | 0.11 |
| U37C U38A U130C A140G | 0.93 |
| A51U A56G A68G A69G | 1.46 |
| U2C A98G U100C | 1.53 |
| U37C A96G A140G | 1.62 |
| G15U U39G A96G U131C | 1.23 |
| A54G A89G U103A | 0.16 |
| U2C G75A U120A | 0.09 |
| A23U A78G U102C A125G | 0.22 |
| A18G A68G U103C U108A | 0.02 |
| A51G A59G U108C | 0.04 |
| U12A A68G A118G A126G | 0.44 |
| A90G A95G U122C | 2 |
| A24G A51G A55G | 1.97 |
| A33C A55U A64G A89G A116G U122C | 0.02 |
| A60G A86G U100G | 0.74 |
| A64G A90G A91G | 1.19 |
| A59G U70C U87C A140G | 0.37 |
| U39C A82G A117G | 0.33 |
| A5G A63U A96G G99A | 1.59 |
| A23G A33G U102C | 1.77 |

| Variant | self-cleavage |
| --- | --- |
| U2C U49A A52G U122G | 2.32 |
| A23G U43A A62U G79A U100C | 0.04 |
| A23G A47U U127C | 0.02 |
| A66G A69G A94G A135G | 0.51 |
| A59U A98G U139C | 0.62 |
| G29U A54U A56C A63G A134G G136A | 1.05 |
| U100C A114U A116G A117U | 0.13 |
| A36G A116G U132A | 0.64 |
| A5U A22C A30G A116U C128U | 0.16 |
| C40U A62G A135U | 1.94 |
| C16U U43G A82G | 0.77 |
| A18G A63G U102A U108A U124C | 0 |
| U9C C42U A67G | 0.81 |
| C6U A63G U70A | 1.73 |
| A33G A51G A63G | 0.86 |
| A5G U130C U131C | 0.58 |
| A56G A64G U103A A117G A129G | 0.26 |
| U19C A47G A117G | 1.42 |
| U2C A30G U43C C105U A117G | 0.31 |
| A54G A56G A67G U100C | 1.47 |
| A36G A60G A116G | 0.94 |
| A111G A114G A118G A129G | 0 |
| U2C A82U A90G U100C | 0.48 |
